About 50,000 (12%) of roughly 420,000 compounds were called active. The inconclusive results got no clear call from the source; some entries with a clear call stand among them for comparison. Calls follow the shape of the dose curve; as a rule, active = well fitted inhibition curve with a large enough effect; inconclusive = small, poorly fitted or top-dose-only effect; inactive = flat fitted curve, though single readings scatter. No potency is given beside an inconclusive call; the fits are too rough.
Assay: qHTS for Inhibitors of human tyrosyl-DNA phosphodiesterase 1 (TDP1): qHTS in cells in presence of CPT; also: nearly all actives have a fitted effect of over 55% in size
Conditions: chicken DT40 Tdp1-/-;hTDP1 cells + 20 nM CPT, ATP luminescence, 48 h; activity change, negative = growth inhibition: at 46.2 µM (top of the series)
Procedure, shortened: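 Chicken DT40 Tdp1-/- cells stably complemented with human TDP1 were seeded at 400 cells/well in medium containing 20 nM camptothecin, exposed to pin-transferred compounds, and grown at 37 °C for at least 48 hr. Viability was read as ATP luminescence.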
% is scaled to controls: 0 for no effect and ±100 for the full control effect; potency is read from the fitted curve at half-maximal effect; tags tell the direction and shape of the fitted curve.

SMILES	Potency	activity change, negative = growth inhibition
CCN(Cc1ccccc1)C(c1ccc(C)cc1)c1nnnn1C(C)(C)CC (stereo not drawn)	inconclusive [inhibitor, single point]	–
CCSc1nc(-c2cccc(Cl)c2)nc2c1Cc1c(CO)cnc(C)c1O2	inactive	–
COc1cccc(CNC(=O)Cn2nc(C)n3c(cc4cc(C)ccc43)c2=O)c1OC	inactive	–
OC(COC(c1ccc(F)cc1)c1ccc(F)cc1)CN1CCc2ccccc2C1 (stereo not drawn)	inconclusive [inhibitor, single point]	–
CCOC(=O)CN(C(=O)CSc1nnc(-c2cccc(OC)c2)o1)c1ccc(F)cc1	–	inconclusive: -31.5% [inhibitor]
CCOC(=O)C(C)N1C(=O)S/C(=C/c2ccc3c(c2)n(C)c(=O)n3C)C1=O (stereo not drawn)	inconclusive [inhibitor, single point]	–
Nc1ccc(S(=O)(=O)Nc2ccc(C(=O)c3ccccc3)cc2)cc1	inactive	–
O=C(Nc1cccc(O)c1)c1c(O)c2ccccc2[nH]c1=O	active: 18.4 µM	–
CC1CCN(c2ccc3c(c2)S(=O)(=O)c2ccccc2C3=O)CC1	inconclusive [inhibitor, single point]	–
C=CCN(c1ccccc1)S(=O)(=O)c1cccc(C(=O)N(CC)CC(=O)Nc2c(F)cccc2F)c1	active: 23.1 µM	–
Cc1ccccc1OCC(=O)NCC(c1ccco1)N1CCCCC1 (stereo not drawn)	inconclusive [inhibitor, single point]	–
CCC(=O)c1ccc(OCc2ccccc2)c(OC)c1	inactive	–
CC(=O)O[C@H]1CC(C)(C)C(=C=C/C(C)=C/C=C/C(C)=C/C=C/C=C(C)/C=C/C=C(\C)C(=O)C[C@@]23O[C@]2(C)C[C@@H](O)CC3(C)C)[C@](C)(O)C1	active: 25.9 µM	–
COc1cccc(N2CCN(C(=O)Cn3c(=O)oc4ccccc43)CC2)c1	inactive	–
OC(COCCOc1ccc(Br)cc1)CN1CCN(Cc2ccccc2)CC1 (stereo not drawn)	inconclusive [inhibitor, single point]	–
N#C/C(=C(/O)c1ccc(-c2cccc([N+](=O)[O-])c2)o1)c1nc2ccccc2s1	–	inconclusive: -33.2% [inhibitor]
COc1ccc(C(=O)C(OP(=O)(OC)OC)c2ccccc2OC)cc1 (stereo not drawn)	inconclusive [inhibitor, single point]	–
COC(=O)Cc1c[nH]c2cccc(OCC(O)CN(Cc3ccc([N+](=O)[O-])cc3)C(C)(C)C)c12 (stereo not drawn)	inconclusive [inhibitor, single point]	–
CCSc1nnc(C)c(=O)n1COC(=O)c1ccc(S(=O)(=O)N2CCCC2)cc1	inconclusive [inhibitor, single point]	–
COc1cc(C(C)=O)ccc1OCC(O)CN1CCN(c2cc(C)cc(C)c2)CC1 (stereo not drawn)	inconclusive [inhibitor, single point]	–
CCOC(=O)c1cc(-c2ccccc2)sc1NC(=O)C(C)OC(=O)c1cccc(S(=O)(=O)N(C)C)c1 (stereo not drawn)	inconclusive [inhibitor, single point]	–
O=C(CN(C1CCCCC1)C1CCCCC1)N1CCc2ccccc2C1	inconclusive [inhibitor, single point]	–
COC(=O)C(CC(=O)c1ccc(Br)cc1)n1nc(C)cc1C (stereo not drawn)	inconclusive [inhibitor, single point]	–

SMILES	Potency	activity change, negative = growth inhibition
COc1cc(C2Nc3ccc4ncccc4c3C3=C2C(=O)CCC3)ccc1O (stereo not drawn)	active: 5.8 µM	–
COc1ccc(OC)c(N(C(=O)c2snc(C(N)=O)c2N)C(C(=O)NCc2ccccc2)c2ccc(O)cc2)c1 (stereo not drawn)	inconclusive [inhibitor, partial curve]	–
Cc1cc(C)c(NC(=O)CSc2nc(=O)n(Cc3ccncc3)c3c2CCC3)c(C)c1	inactive	–
COc1ccccc1CCNc1ncnc2nc[nH]c12	inconclusive [inhibitor, single point]	–
CN(C(=O)COC(=O)CCc1c[nH]c2ccccc12)C(c1ccccc1)c1ccccc1	inconclusive [inhibitor, single point]	–
Cc1nn(Cc2ccc(C(=O)NC3CCCCC3)o2)c(C)c1Br	inconclusive [inhibitor, partial curve, poor fit]	–
O=C(Cc1cccc(NC(=O)C2CCN(C(=O)c3ccccc3)CC2)c1)Nc1cccc(C(=O)N2CCCC2)c1	inactive	–
O=C(NCCc1ccc(F)cc1)Nc1ccc2c(c1)OCO2	active: 18.4 µM	–
CC(O)(c1ccc(F)c(F)c1)c1nc(-c2ccc3ccccc3c2)cs1 (stereo not drawn)	active: 18.4 µM	–
CCOCCCNC(=O)C(c1ccc(C)cc1)N(Cc1ccc2c(c1)OCO2)C(=O)c1ccccc1O (stereo not drawn)	active: 23.1 µM	–
COc1ccc(C(CNC(=O)C(C)Sc2ccccc2)N2CCOCC2)cc1 (stereo not drawn)	inactive	–
COc1cccc(-c2ccc3ncnc(NC4CC4)c3c2)c1	active: 16.4 µM	–
O=C1CCCCN1CCC(=O)N1CCOc2ccc(C(O)C3CCCCC3)cc2C1 (stereo not drawn)	inconclusive [inhibitor, single point]	–
COC(=O)c1ccc(C(=S)N2CCOCC2)cc1	inconclusive [inhibitor, single point]	–
O=C(CC1SC(=O)NC1=O)Nc1ccc(Cl)cc1 (stereo not drawn)	active: 3.26 µM	–
COc1ccc(N2CCN(C(=O)c3ccc(OCc4c(C)noc4C)c(OC)c3)CC2)cc1	inconclusive [inhibitor, partial curve]	–
COc1cccc(C2=CC(c3ccccc3F)n3ncc(C(=O)Nc4ccc(F)cc4)c3N2)c1 (stereo not drawn)	inconclusive [inhibitor, single point]	–
Cc1cccc(N2NC(=O)/C(=C/c3ccc(-c4ccc(Cl)c(C(=O)O)c4)o3)C2=O)c1	inactive	–
Cc1ccc(Nc2c(-c3cccnc3)nc3ccc(C)cn23)cc1	inconclusive [inhibitor, single point]	–
Cc1ccc2[nH]c3c(c2c1)CCCC3C(N)=O (stereo not drawn)	inactive	–
O=C(NC1CCCCC1)C(C1CC1)n1c(=O)c(-c2cc3ccccc3[nH]2)nc2ccccc21 (stereo not drawn)	inconclusive [inhibitor, single point]	–
Cc1nc(C(=O)Nc2cc(Cl)ccc2Cl)nn1-c1cc(OC(C)C)c(Cl)cc1Cl	active: 16.4 µM	–
CCOc1ccc(N(CC(=O)Nc2ccccc2OCC)S(=O)(=O)c2c(C)noc2C)cc1	active: 5.17 µM	–

SMILES	Potency	activity change, negative = growth inhibition
COc1ccc(OC)c(C2c3[nH]c4ccccc4c3C[C@H]3C(=O)N(CCCOC(C)C)CC(=O)N23)c1 (stereo partly drawn)	inactive	–
Cc1ccc(Cl)cc1NC(=O)c1cnn2c1NC(c1ccco1)CC2C(F)(F)F (stereo not drawn)	inconclusive [inhibitor, single point]	–
COc1cccc2c1OC1(C)CC2NC(=O)N1c1cccc(C(=O)Nc2ccc3c(c2)OCCO3)c1 (stereo not drawn)	inconclusive [inhibitor, partial curve]	–
O=C(NC1CCCCC1)c1ccc(CSc2nc3ccncc3n2Cc2cccc(F)c2)cc1	inconclusive [inhibitor, single point]	–
NC(=O)c1csc(C2OC(CO)C(O)C2O)n1 (stereo not drawn)	active: 0.0461 µM	–
Nc1ccc(O)c2c1C(=O)c1ccccc1C2=O	inconclusive [inhibitor, single point]	–
Cc1ccc(C2(C)NC(=O)N(CC(=O)Nc3ccc(-c4nc5ccc(C)cc5s4)cc3)C2=O)cc1 (stereo not drawn)	inconclusive [inhibitor, single point]	–
Cc1ccc(N(C)C(=O)Cn2ncc3c([nH]c4ccccc43)c2=O)cc1C	active: 11.6 µM	–
COc1cc(/C=C/C(=O)Nc2cccc(S(=O)(=O)N3CCOCC3)c2)ccc1OCC#N	inconclusive [inhibitor, single point]	–
COc1ccccc1N1CCN(C(=O)C(C)CS(=O)(=O)c2ccc3c(c2)NC(=O)CS3)CC1 (stereo not drawn)	inconclusive [inhibitor, single point]	–
CN(C(=O)c1ccccc1C(=O)OCC(=O)c1ccc(F)c(F)c1)C1CCCCC1	inconclusive [inhibitor, single point]	–
O=C(CSc1nc2c([nH]c3ccccc32)c(=O)n1-c1ccccc1)Nc1cccc(C(F)(F)F)c1	active: 14.6 µM	–
CCOC(=O)c1c(NCc2ccc3c(c2)OCO3)c2ccccc2[nH]c1=O	inactive	–
Cc1ccc(N2C(=O)N3[C@@H]4c5ccccc5OC[C@@H]4[C@@H](c4ccccc4)[C@@]3(C)C2=O)cc1	inconclusive [inhibitor, single point]	–
CC(=O)c1ccc(-c2ccc(/C=C(/Sc3n[nH]c(C)n3)C(=O)O)o2)cc1	inactive	–
C=CCN(c1ccccc1OC)S(=O)(=O)c1ccc(Cl)c(C(=O)NCc2ccco2)c1	active: 18.4 µM	–
COC(=O)c1sccc1NC(=O)Cc1ccc(OC)c(OC)c1	inactive	–
COc1cccc2cc3c(=O)n(-c4ccccc4)nc-3oc12	inconclusive [inhibitor, single point]	–
COc1ccc(-c2ncccc2OC(=O)C23CC4CC(CC(C4)C2)C3)cc1OC	inconclusive [inhibitor, partial curve, poor fit]	–
O=C(Cc1ccccc1)NS(=O)(=O)c1ccccc1	inactive	–
CCn1c2ccccc2c2cc(NC(=O)CSc3nccc(=O)[nH]3)ccc21	inconclusive [inhibitor, single point]	–
CCOC(=O)C1CCN(C(=O)C(CCSC)NC(=O)c2ccccc2OC)CC1 (stereo not drawn)	inconclusive [inhibitor, single point]	–

Reference: PubChem BioAssay AID686979 (National Center for Advancing Translational Sciences (NCATS), 2013)
